Data on one molecule can be found in patent US20240392016A1 (Sanofi, published 2024).

Experiment [1] deals with T1, human CD123 (human, UniProt P26951 19-305).
T1 construct: also called IL-3Ra; interleukin-3 receptor alpha chain
T1 sequence: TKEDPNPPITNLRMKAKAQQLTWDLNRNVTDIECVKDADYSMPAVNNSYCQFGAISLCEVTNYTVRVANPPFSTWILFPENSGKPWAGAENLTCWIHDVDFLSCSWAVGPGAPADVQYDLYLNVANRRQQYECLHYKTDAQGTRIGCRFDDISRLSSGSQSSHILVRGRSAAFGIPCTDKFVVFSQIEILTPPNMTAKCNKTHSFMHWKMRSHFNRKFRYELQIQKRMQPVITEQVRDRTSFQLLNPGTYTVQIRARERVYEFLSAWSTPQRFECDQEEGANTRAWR
Kind of experiment: KD2, CD123 binding affinity fixed in the in vitro PK/PD model; source: internal measurement for humans, method not stated.

Experiment [2] concerns the target T2, human NKp46 (human, UniProt O76036 22-255, limits assumed).
T2 construct: also called CD335; Natural cytotoxicity triggering receptor 1
T2 sequence: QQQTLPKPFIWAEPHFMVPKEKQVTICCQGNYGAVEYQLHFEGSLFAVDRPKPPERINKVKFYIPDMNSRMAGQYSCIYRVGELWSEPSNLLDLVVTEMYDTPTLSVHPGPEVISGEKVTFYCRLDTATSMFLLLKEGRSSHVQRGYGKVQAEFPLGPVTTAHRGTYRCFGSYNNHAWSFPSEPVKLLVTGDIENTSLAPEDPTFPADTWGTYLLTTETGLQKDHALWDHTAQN
Nature of the experiment: KD1, NKp46 binding affinity fixed in the in vitro PK/PD model; source: internal measurement for humans, method not stated.

The target in experiment [3] is T3, cell surface CD123 on human AML cells (human, UniProt P26951 19-378).
T3 sequence (looked up): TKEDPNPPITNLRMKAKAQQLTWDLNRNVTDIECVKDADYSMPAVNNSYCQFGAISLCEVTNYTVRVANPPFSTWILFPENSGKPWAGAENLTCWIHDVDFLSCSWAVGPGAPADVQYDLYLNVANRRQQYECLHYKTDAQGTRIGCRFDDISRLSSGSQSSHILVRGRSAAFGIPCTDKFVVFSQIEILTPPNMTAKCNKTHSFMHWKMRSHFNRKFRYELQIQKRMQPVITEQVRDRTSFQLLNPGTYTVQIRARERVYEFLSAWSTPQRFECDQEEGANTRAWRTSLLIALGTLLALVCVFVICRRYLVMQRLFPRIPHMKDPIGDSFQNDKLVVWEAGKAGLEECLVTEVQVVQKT
Nature of the experiment: cell-based or functional assay.

Experiment [4] has as its target T4, NHP CD123 (nonhuman primate (cynomolgus monkey …)).
T4 construct: Neither the construct nor the assay is stated; also called CD123 (in vivo NHP PK/PD model)
Nature of the experiment: KD2, CD123 binding affinity fixed in the in vivo NHP PK/PD model; source: internal data, method not stated.

Experiment [5] addresses T2, human NKp46. Nature of the experiment: affinity measurement, method not stated in the example (mean ± SD).
Experiment [6] has as its target T3, cell surface CD123 on human AML cells. Nature of the experiment: cell-based or functional assay. The source holds these as a separate data set.

“And” between values parts separate entries of the source, which are not always exact repeats. Equal values may be shown once.

B1: CD123 NKCE (bispecific antibody, human IgG1, kappa)
chain 1: DIVMTQSPDSLAVSLGERATINCESSQSLLSSGNQKNYLTWYQQKPGQPPKPLIYWASTRESGVPDRFSGSGSGTDFTLTISSLQAEDVAVYYCQNDYSYPYTFGQGTKLEIKRTVAAPSVFIFPPSDEQLKSGTASVVCLLNNFYPREAKVQWKVDNALQSGNSQESVTEQDSKDSTYSLSSTLTLSKADYEKHKVYACEVTHQGLSSPVTKSFNRGE[letters of human IgG1 Fc not shown]
chain 2: EVQLVQSGAEVKKPGESLKISCKGSGYSFTDYYMKWARQMPGKGLEWMGDIIPSSGATFYNQKFKGQVTISADKSISTTYLQWSSLKASDTAMYYCARSHLLRASWFAYWGQGTMVTVSSASTKGPSVFPLAPSSKSTSGGTAALGCLVKDYFPEPVTVSWNSGALTSGVHTFPAVLQSSGLYSLSSVVTVPSSSLGTQTYICNVNHKPSNTKVDKRV[letters of human IgG1 Fc not shown]TGSQVQLVQSGAEVKKPGSSVKVSCKASGYTFSDYVINWVRQAPGQGLEWMGEIYPGSGTNYYNEKFKAKATITADKSTSTAYMELSSLRSEDTAVYYCARRGRYGLYAMDYWGQGTTVTVSSASTKGPSVFPLAPSSKSTSGGTAALGCLVKDYFPEPVTVSWNSGALTSGVHTFPAVLQSSGLYSLSSVVTVPSSSLGTQTYICNVNHKPSNTKVDKRVEPKSCDKTHS
chain 3: DIQMTQSPSSLSASVGDRVTITCRASQDISNYLNWYQQKPGKAPKLLIYYTSRLHSGVPSRFSGSGSGTDFTFTISSLQPEDIATYFCQQGNTRPWTFGGGTKVEIKRTVAAPSVFIFPPSDEQLKSGTASVVCLLNNFYPREAKVQWKVDNALQSGNSQESVTEQDSKDSTYSLSSTLTLSKADYEKHKVYACEVTHQGLSSPVTKSFNRGEC
notes: also called NKp46-CD123_F25; trifunctional NK cell engager
On to B1, for which the Kd in experiment [1] came out at 0.404 nM; in experiment [2], 16.6 nM; in experiment [4], 1.23 nM; in experiment [5], 16.3 nM. Further, the “Cytotoxic activity against primary AML blasts with healthy donor NK cells as effectors; EC50 rel” value in experiment [3] was 3.5 ng/mL and 23.2 pM. Besides, the “Cytotoxic activity by fresh NK cells against KG-1a (3000 CD123 sites/cell); geometric mean of EC50 rel” value in experiment [6] is 4530 pg/mL and 30.2 pM. For the same molecule, the “Cytotoxic activity by fresh NK cells against MOLM-13 (20,000 CD123 sites/cell); geometric mean of EC50 rel” value in experiment [6] is 637 pg/mL and 4.2 pM. For the same molecule, the “Cytotoxic activity by fresh NK cells against NB-4 (1800 CD123 sites/cell); geometric mean of EC50 rel” value in experiment [6] was 435 pg/mL and 2.9 pM.

Broadly, the Kd is the equilibrium constant for the complex coming apart.
